# Measured values as given in the supplement of paper PMC8728848.
# The list shows a part of the results.
# B1: AT5G01260(PC)(40) (Arabidopsis thaliana), Q9LFB0 (protein)
# chain: MIGIGRTLTSSSPSKIILEDLPPGIYRYGTEIFTSVPRKTFHHIKFLRLDSAQSSRILKPVPLRSSSIKDSQVNVEDEEIEASNKTVRVRFQLRKECVFGEHFFIVGDDPVFGGLWDPETALPLNWSDGNVWTVDLDLPVGRLVEFKLLLKAQTGEILWQPGPNRALETWETNKTIRICEDWDNADLQMMIEEDFVPYTNISSIGSEDEDEVLGSVQQNSSVVAVENAGYVSDESAQNSSFSIQSEKTMEPSNGALTAREVIKEAMFTEEESPVLVPGLIPLSDLDNEQVEVINEGKAETFPEVDKKQEPKAERNKKAKVKAISLFEKSEQEAVKSVEQRQYNAVEEEQQRLETEPLGTPDVLFENDIQWGRRTLYKLLSNFRLF
# Assays:
# Experiment in all cases: glycan array binding signal (z-score within array); higher = stronger binding
# Details in all cases: glycan notation: IUPAC condensed, linker removed
# [1] = molecular target: Fuc(a1-2)Gal(b1-4)GlcNAc(b1-3)Gal(b1-4)GlcNAc(b1-2)Man(a1-3)[Fuc(a1-2)Gal(b1-4)GlcNAc(b1-3)Gal(b1-4)GlcNAc(b1-2)Man(a1-6)]Man(b1-4)GlcNAc(b1-4)GlcNAc
# In short: (§1)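 Glycan array data came from 3228 arrays in the Consortium for Functional Glycomics database, and only arrays with an available protein sequence were kept. Glycan names were put into IUPAC-condensed notation, and columns mapping to the same glycan were averaged. The binding signal is a within-array Z-score, averaged across arrays of one protein sequence run at different concentrations or buffers and across linkers. A negative Z-score can be read as non-binding.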
# [2] = molecular target: Fuc(a1-2)Gal(b1-4)GlcNAc(b1-3)Gal(b1-4)GlcNAc(b1-3)Gal(b1-4)GlcNAc
# In short: as §1
# [3] = molecular target: Fuc(a1-2)Gal(b1-4)GlcNAc(b1-3)GalNAc
# In short: as §1
# [4] = molecular target: Fuc(a1-2)Gal(b1-4)GlcNAc(b1-3)[Fuc(a1-2)Gal(b1-4)GlcNAc(b1-6)]GalNAc
# In short: as §1
# [5] = molecular target: Fuc(a1-2)Gal(b1-4)GlcNAc(b1-3)[Fuc(a1-3)[Gal(b1-4)]GlcNAc(b1-6)]Gal(b1-4)Glc
# In short: as §1
# [6] = molecular target: Fuc(a1-2)Gal(b1-4)GlcNAc(b1-6)GalNAc
# In short: as §1
# [7] = molecular target: Fuc(a1-2)Gal(b1-4)GlcNAc6S
# In short: as §1
# [8] = molecular target: Fuc(a1-2)Gal(b1-4)[Fuc(a1-3)]GlcNAc
# In short: as §1
# [9] = molecular target: Fuc(a1-2)Gal(b1-4)[Fuc(a1-3)]GlcNAc(b1-2)Man(a1-3)[Fuc(a1-2)Gal(b1-4)[Fuc(a1-3)]GlcNAc(b1-2)Man(a1-6)]Man(b1-4)GlcNAc(b1-4)[Fuc(a1-6)]GlcNAc
# In short: as §1
# [10] = molecular target: Fuc(a1-2)Gal(b1-4)[Fuc(a1-3)]GlcNAc(b1-2)[Fuc(a1-2)Gal(b1-4)[Fuc(a1-3)]GlcNAc(b1-4)]Man(a1-3)[Fuc(a1-2)Gal(b1-4)[Fuc(a1-3)]GlcNAc(b1-2)Man(a1-6)]Man(b1-4)GlcNAc(b1-4)GlcNAc
# In short: as §1
# [11] = molecular target: Fuc(a1-2)Gal(b1-4)[Fuc(a1-3)]GlcNAc(b1-3)Gal(b1-4)[Fuc(a1-3)]GlcNAc
# In short: as §1
# [12] = molecular target: Fuc(a1-2)Gal(b1-4)[Fuc(a1-3)]GlcNAc(b1-3)Gal(b1-4)[Fuc(a1-3)]GlcNAc(b1-3)Gal(b1-4)[Fuc(a1-3)]GlcNAc
# In short: as §1
# [13] = molecular target: Fuc(a1-2)Gal(b1-4)[Fuc(a1-3)]GlcNAc(b1-3)GalNAc
# In short: as §1
# [14] = molecular target: Fuc(a1-2)Gal(b1-4)[Fuc(a1-3)]GlcNAc(b1-3)[Neu5Ac(a2-6)Gal(b1-4)GlcNAc(b1-6)]Gal(b1-4)Glc
# In short: as §1
# [15] = molecular target: Fuc(a1-2)Gal3S(b1-4)GlcNAc
# In short: as §1
# [16] = molecular target: Fuc(a1-2)Gal6S(b1-3)GlcNAc
# In short: as §1
# [17] = molecular target: Fuc(a1-2)Gal6S(b1-3)GlcNAc6S
# In short: as §1
# Fuc(a1-2)Gal6S(b1-4)Glc = molecular target: Fuc(a1-2)Gal6S(b1-4)Glc
# In short: as §1
# [18] = molecular target: Fuc(a1-2)Gal6S(b1-4)Glc6S
# In short: as §1
# Fuc(a1-2)[Gal(a1-3)]Gal = molecular target: Fuc(a1-2)[Gal(a1-3)]Gal
# In short: as §1
# [19] = molecular target: Fuc(a1-2)[Gal(a1-3)]Gal(b1-3)GalNAc
# In short: as §1
# [20] = molecular target: Fuc(a1-2)[Gal(a1-3)]Gal(b1-3)GalNAc(b1-3)Gal(a1-4)Gal(b1-4)Glc
# In short: as §1
# [21] = molecular target: Fuc(a1-2)[Gal(a1-3)]Gal(b1-3)GlcNAc
# In short: as §1
# [22] = molecular target: Fuc(a1-2)[Gal(a1-3)]Gal(b1-3)GlcNAc(b1-2)Man(a1-3)[Fuc(a1-2)[Gal(a1-3)]Gal(b1-3)GlcNAc(b1-2)Man(a1-6)]Man(b1-4)GlcNAc(b1-4)GlcNAc
# In short: as §1
# [23] = molecular target: Fuc(a1-2)[Gal(a1-3)]Gal(b1-3)GlcNAc(b1-2)Man(a1-3)[Fuc(a1-2)[Gal(a1-3)]Gal(b1-3)GlcNAc(b1-2)Man(a1-6)]Man(b1-4)GlcNAc(b1-4)[Fuc(a1-6)]GlcNAc
# In short: as §1
# [24] = molecular target: Fuc(a1-2)[Gal(a1-3)]Gal(b1-3)GlcNAc(b1-3)GalNAc
# In short: as §1
# [25] = molecular target: Fuc(a1-2)[Gal(a1-3)]Gal(b1-3)GlcNAc(b1-6)GalNAc
# In short: as §1
# [26] = molecular target: Fuc(a1-2)[Gal(a1-3)]Gal(b1-4)Glc
# In short: as §1
# [27] = molecular target: Fuc(a1-2)[Gal(a1-3)]Gal(b1-4)GlcNAc
# In short: as §1
# [28] = molecular target: Fuc(a1-2)[Gal(a1-3)]Gal(b1-4)GlcNAc(b1-2)Man
# In short: as §1
binder,measurement,setting,value
B1,glycan array binding signal (z-score),[1],0.758
same,glycan array binding signal (z-score),[2],-0.994
same,glycan array binding signal (z-score),[3],0.063
same,glycan array binding signal (z-score),[4],-0.44
same,glycan array binding signal (z-score),[5],-0.45
same,glycan array binding signal (z-score),[6],0.107
same,glycan array binding signal (z-score),[7],-0.603
same,glycan array binding signal (z-score),[8],-0.291
same,glycan array binding signal (z-score),[9],-0.616
same,glycan array binding signal (z-score),[10],0.175
same,glycan array binding signal (z-score),[11],-0.004
same,glycan array binding signal (z-score),[12],-0.725
same,glycan array binding signal (z-score),[13],0.378
same,glycan array binding signal (z-score),[14],-0.201
same,glycan array binding signal (z-score),[15],-0.755
same,glycan array binding signal (z-score),[16],-0.048
same,glycan array binding signal (z-score),[17],0.127
same,glycan array binding signal (z-score),Fuc(a1-2)Gal6S(b1-4)Glc,-0.151
same,glycan array binding signal (z-score),[18],-0.355
same,glycan array binding signal (z-score),Fuc(a1-2)[Gal(a1-3)]Gal,0.732
same,glycan array binding signal (z-score),[19],-0.341
same,glycan array binding signal (z-score),[20],0.036
same,glycan array binding signal (z-score),[21],0.172
same,glycan array binding signal (z-score),[22],-0.244
same,glycan array binding signal (z-score),[23],-0.156
same,glycan array binding signal (z-score),[24],-0.485
same,glycan array binding signal (z-score),[25],0.179
same,glycan array binding signal (z-score),[26],-0.063
same,glycan array binding signal (z-score),[27],-0.786
same,glycan array binding signal (z-score),[28],-0.675
